Test results taken from publication PMC13451150.
No constants are given. Whether binding was seen depends on the method and setting. For some assays here: Binding seen in cells or lysates may run through a third protein. Some binding calls cover weakened binding; strength is not graded here.

By UniProt entry, the sequences of proteins in these tests, tags left out. Residues count along the entry.
UniProt Q9UGP4: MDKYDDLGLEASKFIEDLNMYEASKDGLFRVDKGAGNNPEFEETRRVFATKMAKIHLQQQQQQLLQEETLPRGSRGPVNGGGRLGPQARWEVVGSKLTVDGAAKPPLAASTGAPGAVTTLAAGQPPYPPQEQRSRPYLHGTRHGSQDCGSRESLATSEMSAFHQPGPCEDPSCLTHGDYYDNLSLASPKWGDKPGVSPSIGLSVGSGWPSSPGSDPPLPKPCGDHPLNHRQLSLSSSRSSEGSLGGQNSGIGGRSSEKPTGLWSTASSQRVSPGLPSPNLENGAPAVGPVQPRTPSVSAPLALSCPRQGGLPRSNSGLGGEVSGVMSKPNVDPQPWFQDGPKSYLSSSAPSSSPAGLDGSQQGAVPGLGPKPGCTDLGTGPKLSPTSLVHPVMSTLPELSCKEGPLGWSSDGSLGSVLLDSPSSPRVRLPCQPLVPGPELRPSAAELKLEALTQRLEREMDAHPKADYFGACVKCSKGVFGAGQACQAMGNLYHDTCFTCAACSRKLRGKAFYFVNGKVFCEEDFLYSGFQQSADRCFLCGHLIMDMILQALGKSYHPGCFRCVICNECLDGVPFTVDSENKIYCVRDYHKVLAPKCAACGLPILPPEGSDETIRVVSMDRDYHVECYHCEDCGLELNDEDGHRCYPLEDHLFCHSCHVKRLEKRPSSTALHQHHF
UniProt Q9NZQ7, residues 19-290: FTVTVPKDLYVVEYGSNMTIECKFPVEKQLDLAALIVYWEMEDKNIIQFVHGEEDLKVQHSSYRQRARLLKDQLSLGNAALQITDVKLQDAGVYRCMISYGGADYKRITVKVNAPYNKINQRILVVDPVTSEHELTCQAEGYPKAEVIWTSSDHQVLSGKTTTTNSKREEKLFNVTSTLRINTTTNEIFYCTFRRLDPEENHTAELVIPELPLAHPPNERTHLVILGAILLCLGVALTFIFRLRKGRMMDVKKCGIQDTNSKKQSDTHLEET
UniProt Q9Y4X5: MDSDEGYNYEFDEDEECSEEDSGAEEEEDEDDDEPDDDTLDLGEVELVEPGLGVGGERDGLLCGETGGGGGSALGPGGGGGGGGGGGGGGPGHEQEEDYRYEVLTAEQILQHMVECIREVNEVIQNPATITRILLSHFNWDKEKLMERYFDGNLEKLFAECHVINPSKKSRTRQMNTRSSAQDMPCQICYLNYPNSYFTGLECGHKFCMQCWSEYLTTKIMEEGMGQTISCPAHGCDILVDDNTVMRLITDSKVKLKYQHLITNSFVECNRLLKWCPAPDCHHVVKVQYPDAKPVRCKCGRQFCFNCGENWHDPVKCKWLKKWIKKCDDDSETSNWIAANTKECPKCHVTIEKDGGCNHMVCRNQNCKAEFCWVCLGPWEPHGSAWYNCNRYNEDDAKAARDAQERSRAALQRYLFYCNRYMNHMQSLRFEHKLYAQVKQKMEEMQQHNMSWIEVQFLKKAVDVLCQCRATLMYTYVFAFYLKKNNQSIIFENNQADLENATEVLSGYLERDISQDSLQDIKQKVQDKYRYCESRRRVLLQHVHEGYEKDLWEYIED
UniProt Q9Y297: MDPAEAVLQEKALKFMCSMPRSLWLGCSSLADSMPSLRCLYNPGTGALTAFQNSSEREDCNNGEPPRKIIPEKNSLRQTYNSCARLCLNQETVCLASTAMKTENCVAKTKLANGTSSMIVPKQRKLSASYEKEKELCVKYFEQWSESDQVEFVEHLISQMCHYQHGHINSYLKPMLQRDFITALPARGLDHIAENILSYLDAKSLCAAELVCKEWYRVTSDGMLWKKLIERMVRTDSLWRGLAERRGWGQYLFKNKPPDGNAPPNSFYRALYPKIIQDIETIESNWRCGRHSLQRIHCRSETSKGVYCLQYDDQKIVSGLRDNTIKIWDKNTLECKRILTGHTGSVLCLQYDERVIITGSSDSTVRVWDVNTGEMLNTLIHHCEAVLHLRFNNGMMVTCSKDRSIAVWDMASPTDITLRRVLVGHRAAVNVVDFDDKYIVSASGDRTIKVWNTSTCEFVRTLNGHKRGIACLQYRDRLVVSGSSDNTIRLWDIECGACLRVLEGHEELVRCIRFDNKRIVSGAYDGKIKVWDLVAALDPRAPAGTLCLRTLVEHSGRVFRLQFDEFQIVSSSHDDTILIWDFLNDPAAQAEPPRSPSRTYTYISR

Experiments:
[1] = biological target: LIMD1 (human (endogenous in A549)) (UniProt Q9UGP4); assay: co-IP; endogenous LIMD1 immunoprecipitated from A549 Cas9 and LIMD1-/- C5 lysates; inputs and elutions immunoblotted
[2] = biological target: HA-PD-L1 (UniProt Q9NZQ7); assay: co-IP; HA-PD-L1 transfected into A549 Cas9 and LIMD1-/- cells; NP-40 lysis buffer; antibody overnight at 4°C, Protein G Mag Sepharose beads; immunoblot
[3] = biological target: PD-L1 (human (endogenous in SAEC)) (UniProt Q9NZQ7); assay: proximity ligation; SAEC transfected with Scr or LIMD1 siRNA, 0.5 ng/ml IFNγ for 24 h, fixed and permeabilised; mouse anti-PD-L1 and rabbit anti-ARIH1; NaveniFlex Cell MR kit; foci per cell counted
[4] = biological target: GST-LIMD1 (UniProt Q9UGP4); assay: pull-down; GST-LIMD1, GST-VO or beads alone on glutathione Sepharose; purified 6His-ARIH1 added; PBS + 0.1% Triton X-100 + 5% glycerol, overnight at 4°C; eluted with 50 mM reduced glutathione; immunoblots of GST and 6His-tag; both purified

Row | binding [1] | binding [2] | binding [3] | binding [4] | Substance
1 | binds | binds | binds | – | ARIH1 (from UniProt Q9Y4X5 1-557) (enzyme)
2 | – | – | – | binds | 6His-ARIH1 (from UniProt Q9Y4X5 1-557) (enzyme)
3 | no binding | – | – | – | β-TrCP (from UniProt Q9Y297 1-605) (enzyme)
